For this experiment, the target named is T1, soluble His-tagged Apo-2L (UniProt P50591 114-281, limits assumed).
T1 construct: His tag present; also called Apo-2 ligand; TRAIL
Kind of experiment: KinExA; column head 'Affinity (pM)'.

T1 sequence (P50591 114-281 limits assumed): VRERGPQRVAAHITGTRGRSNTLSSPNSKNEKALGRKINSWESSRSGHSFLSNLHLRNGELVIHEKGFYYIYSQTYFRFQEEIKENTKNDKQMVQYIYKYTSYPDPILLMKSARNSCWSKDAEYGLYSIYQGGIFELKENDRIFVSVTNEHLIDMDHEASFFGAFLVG

B1: DR4 ECD immunoadhesin (Fc fusion)
chain: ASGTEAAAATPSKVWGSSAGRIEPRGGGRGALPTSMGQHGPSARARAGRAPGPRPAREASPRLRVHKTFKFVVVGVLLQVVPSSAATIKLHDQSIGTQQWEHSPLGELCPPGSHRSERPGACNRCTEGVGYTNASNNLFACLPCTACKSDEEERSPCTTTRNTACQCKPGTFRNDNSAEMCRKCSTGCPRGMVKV
notes: Expressed in human 293 cells; also called DR4-IgG; DR4 ECD-IgG; not shown: CH1, hinge and Fc region of human immunoglobulin G1 heavy chain
For B1, the Kd – broadly, the concentration at which binding is half-saturated – was 0.082 nM.

The values above are taken from US20040120947A1 (Genentech, published 2004).
